Screen size: about 5,400 compounds; about 190 (3.5%) showed an effect of 50% or more. The list shows a part of the results.

In this experiment the test system is Vero-E6. Kind of experiment: primary screen, phospholipidosis by LipidTOX staining; higher = more effect of the substance. The settings on record: 10 µM. The gist of the method: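 Drug-induced phospholipidosis detected with HCS LipidTOX Red reagent in Vero-E6 cells. Compounds tested at 10 μM, with amiodarone (10 μM) as positive control and DMSO (0.1 v/v %) as vehicle.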
With `COc1ccc(-c2nc(N3CCOCC3)c3sc(CN(C)c4ncc(C(=O)NO)cn4)cc3n2)cn1`, the result_ITMP is on record as -0.46%.
In the case of `COc1cc(-c2ncn(/C=C\C(=O)OC(C)C)n2)cc(C(F)(F)F)c1`, the result_ITMP was determined as 4.15%.
With `CN(CCCN1c2ccccc2CCc2ccccc21)CC(=O)c1ccc(Cl)cc1`, the result_ITMP is 13.8%.
Consider `CCS(=O)(=O)N1CC(CC#N)(n2cc(-c3ncnc4[nH]ccc34)cn2)C1`, for which the result_ITMP is 0.97%.
For the compound `O=C(Nc1c[nH]nc1-c1nc2cc(CN3CCOCC3)ccc2[nH]1)NC1CC1`, the result_ITMP is given as 14.8%.
`O=C1NCC2(CCN(CCc3ccccc3)CC2)O1`: the result_ITMP is -1.69%.
For `CCCCC/C=C\C/C=C\CCCCCCCC(=O)NCCCC(=O)O`, the result_ITMP was -1.7%.
Take `Clc1ccc2c(c1)CCc1cccnc1C2=C1CCNCC1`: the result_ITMP was found to be 18.1%.
As for `O=C(NC1(c2ccccc2)CC1)c1c(CN2CCC(N3CCCCC3)CC2)c(-c2cccc(C(F)(F)F)c2)nc2cc(Br)ccc12`, the result_ITMP came to 35.3%.
For the compound `Nc1nc(NCCNc2ncc(-n3ccnc3)c(-c3ccc(Cl)cc3Cl)n2)ccc1[N+](=O)[O-]`, the result_ITMP is -6.78%.
As to `O=C([O-])CCC/C=C\C[C@@H]1[C@@H](/C=C/[C@@H](O)COc2cccc(Cl)c2)[C@H](O)C[C@@H]1O` (racemic), the result_ITMP was -1.06%.
As for `CC1(C)OC[C@@H](COC(=O)CCc2ccc(OC[C@@H](O)CNCCNC(=O)N3CCOCC3)cc2)O1`, the figure is -3.76%; as for `Cc1[nH]cnc1CN1CCc2c(c3ccccc3n2C)C1=O`, 0.22%.
Take `O=S(=O)(c1cccc2c(O)nccc12)N1CCCNCC1`: the result_ITMP is recorded as -2.3%.
As for `Cc1cc(-c2ccc3c(c2)CC[C@H]3N2CC3(CCN(C(=O)Cc4cn5cc(C)sc5n4)CC3)C2)ncn1`, the figure is -1.47%; as for `O=C(O)CCc1ccc(NCc2cccc(Oc3ccccc3)c2)cc1`, -4.86%.
On to `O=C(O)[C@H]1CC[C@H](c2cc3cccnc3c(-c3cccc(F)c3)n2)CC1`, for which the result_ITMP is listed as -0.01%.
The same measure for `O=C(Cn1c(=O)sc2ccc(Cl)cc21)N1CCN(CCO)CC1`: -3.14%; for `CC(C)c1ccccc1Cc1cc(C(=O)Nc2ccc(S(=O)(=O)c3ccccc3C(C)(C)C)cc2)c(O)c(O)c1O`: -10.3%.
`CC(=O)O[C@@H]1C[C@H]2C(C)(C)C(=O)C=C[C@]2(C)[C@H]2CC[C@@]3(C)[C@H](c4ccoc4)OC(=O)[C@H]4O[C@]43[C@@]21C`: the result_ITMP turned out to be 4.73%.
The same measure for `CC(C)(C)c1cc(C=C(C#N)C#N)cc(Br)c1O`: -4.99%.
Regarding `CC(=O)[C@H]1CC[C@H]2[C@@H]3CC[C@H]4C[C@H](O)CC[C@]4(C)[C@H]3CC[C@]12C`, the result_ITMP is recorded as -0.04%.
`Cc1cc2nc3c(=O)[nH]c(=O)nc-3n(C[C@H](O)[C@H](O)[C@H](O)CO)c2cc1C`: the result_ITMP is reported as -0.43%.
Consider `O=C(NCc1ccc(F)cc1)N1CCN2C(=O)OC(c3ccccc3)(c3ccccc3)C2C1` (stereo not drawn), for which the result_ITMP is 1.09%.
The same measure for `NC[C@H](CC(=O)O)c1ccc(Cl)cc1`: -7.85%; for `C[Se]C[C@H](N)C(=O)O`: 2.63%.
For the compound `O=C(O)[C@@H]1C[C@@H](O)CN1`, the result_ITMP is listed as -0.63%.
On to `CC(N)Cc1ccc(O)cc1` (stereo not drawn), for which the result_ITMP was -0.07%.
Take `CCCCCCCC/C=C/CCCCCCCC(=O)OC[C@H]1O[C@@H](n2ccc(N)nc2=O)C(F)(F)[C@@H]1O`: the result_ITMP was -0.7%.
Take `NC(=O)Nc1cc(-c2cccc(F)c2)sc1C(=O)N[C@H]1CCCNC1`: the result_ITMP is reported as -0.08%.
Regarding `Nc1ncnc2c1ncn2[C@@H]1O[C@H](COP(=O)(O)OP(=O)(O)OP(=O)(O)OP(=O)(O)OC[C@H]2O[C@@H](n3cnc4c(N)ncnc43)C(O)C2O)C(O)C1O` (stereo partly drawn), the result_ITMP was 0.26%.
The same measure for `Cc1noc(NS(=O)(=O)c2cccc3c(N(C)C)cccc23)c1C`: -1.78%; for `Clc1ccc(N/N=C(\c2ccccc2)c2ccccn2)nc1`: 1.81%; for `CCN(CC)C(=O)c1ccc(O)c(OC)c1`: -1.23%.
Turning to `NC1(C(=O)O)CC1`, the result_ITMP amounted to 0.83%.
As to `NC(C(=O)O)c1cc(O)no1` (stereo not drawn), the result_ITMP was -1.46%.
Turning to `CO[C@H]1O[C@@H]2O[C@@]3(C)CC[C@H]4[C@H](C)CC[C@@H]([C@H]1C)[C@@]24OO3`, the result_ITMP is -0.98%.
As to `C[C@H]1CO[C@@H]2Cn3cc(C(=O)NCc4ccc(F)cc4F)c(=O)c(O)c3C(=O)N12`, the result_ITMP is on record as -14.2%.
On to `CCc1[nH]c(=O)[nH]c1C(=O)c1ccncc1`, for which the result_ITMP is listed as -3.66%.
With `COc1ccc(COc2ccc(CC#N)cc2)cc1`, the result_ITMP is reported as -6.9%.
The same measure for `CC(=O)[C@@]1(O)CC[C@H]2[C@@H]3CCC4=CC(=O)CC[C@]4(C)[C@H]3CC[C@@]21C`: 0.05%.
`O=C(c1c(F)ccc(NS(=O)(=O)N2CC[C@@H](F)C2)c1F)c1c[nH]c2ncc(-c3cnc(C4CC4)nc3)cc12`: the result_ITMP is on record as -1.19%.
As for `CC(=O)N[C@@H](CSC/C=C(\C)CC/C=C(\C)CCC=C(C)C)C(=O)O`, the figure is -5.85%.
For `Nc1nccc(Oc2ccc(NC(=O)c3c[nH]cc(-c4ccc(F)cc4)c3=O)cc2F)c1Cl`, the result_ITMP was -3.79%.
For the compound `COC1=C[C@@H]2[C@@H]3Cc4ccc(OC)c(O)c4[C@]2(CCN3C)CC1=O`, the result_ITMP is -3.29%.
The same measure for `COc1ccc(N(C(=O)Oc2c(C)cccc2C)c2ccnc(Nc3ccc(N4CCN(C)CC4)cc3)n2)c(OC)c1`: -0.06%; for `CC(C)N(CC[C@H](c1ccccc1)c1cc(CO)ccc1O)C(C)C`: 9.49%; for `Cn1cc(C(F)(F)F)nc1-c1ccc(OCC(O)CNCCOc2ccc(O)c(C(N)=O)c2)cc1` (stereo not drawn): -1.92%.
Regarding `CN1CCN2c3ncccc3Cc3ccccc3C2C1` (stereo not drawn), the result_ITMP is -8.07%.
The same measure for `O=C(Nc1cnn2ccc(N3CCC[C@@H]3c3cc(F)ccc3F)nc12)N1CC[C@H](O)C1`: -4.89%; for `CN(C(=O)CN(CCO)CC(=O)N(C)C(C)(C)Cc1ccccc1)C(C)(C)Cc1ccccc1`: -3%.
As for `COC(=O)N/N=C/c1c[n+]([O-])c2ccccc2[n+]1[O-]`, the figure is -5.07%.
The same measure for `CC(C)(Oc1ccc(Cl)cc1)C(=O)OCCOC(=O)c1cccnc1`: 1.59%; for `COc1cc(NS(=O)(=O)c2ccc(N)cc2)ncn1`: -1.77%; for `Cc1cc(C)nc(NS(=O)(=O)c2ccc(N)cc2)n1`: -2.34%.
In the case of `CCn1c(=O)c2c(nc(/C=C/c3ccc(OC)c(OC)c3)n2C)n(CC)c1=O`, the result_ITMP is -5.39%.
Turning to `C[N@+]12CCCC[C@@H]1CCC(=C(c1cccs1)c1cccs1)C2` (racemic), the result_ITMP is given as -3.77%.
Consider `CC(=O)NCC(=O)N1[C@@H]2CC[C@H]1c1ccc(Nc3ncc(C(F)(F)F)c(NC4CCC4)n3)cc12`, for which the result_ITMP was 2.85%.
As to `c1ccc2cc(C3=NCCN3)ncc2c1`, the result_ITMP is recorded as -2.07%.
On to `CN([C@@H](Cc1ccc(OS(=O)(=O)c2cccc3cnccc23)cc1)C(=O)N1CCN(c2ccccc2)CC1)S(=O)(=O)c1cccc2cnccc12`, for which the result_ITMP worked out at 7.28%.
Take `C[C@@H]1C/C=C/C=C/C=C/C=C/[C@H](O[C@@H]2O[C@H](C)[C@@H](O)[C@H](N)[C@@H]2O)C[C@@H]2O[C@](O)(C[C@@H](O)C[C@H]3O[C@@H]3/C=C/C(=O)O1)C[C@H](O)[C@H]2C(=O)O`: the result_ITMP is listed as 6.32%.
As for `O=[N+]([O-])C(Br)(CO)CO`, the result_ITMP is given as 2.28%.
On to `CN1C(=O)N[C@H](Cc2c[nH]c3c(Cl)cccc23)C1=O`, for which the result_ITMP is on record as -1.67%.
Consider `O=c1c(-c2ccc(O)cc2)coc2c(O[C@@H]3O[C@H](CO)[C@@H](O)[C@H](O)[C@H]3O)c(O)ccc12`, for which the result_ITMP is given as -5.15%.
For the compound `COc1ccc(Cl)cc1C(=O)NCCc1ccc(S(=O)(=O)NC(=O)NC2CCCCC2)cc1`, the result_ITMP is recorded as -16.6%.
Take `Nc1nc(=O)n([C@@H]2CS[C@H](CO)O2)cc1F`: the result_ITMP is -4.15%.
As to `O[C@@H]1CCCC[C@H]1N1CCC(c2ccccc2)CC1` (racemic), the result_ITMP is on record as -4.38%.
The same measure for `CN(Cc1cccc(-c2ccccc2)c1)C(=O)Oc1ccc(-c2ccc(C(N)=O)cc2)cc1`: -5.7%; for `COc1cc(SC)ccc1C(=O)N1CCC(Cc2ccccc2)CC1`: 2.55%.
Turning to `CN(C)CCc1ccc(O)cc1`, the result_ITMP was determined as 6.45%.
`CC#C[C@]1(O)CC[C@H]2[C@@H]3CCC4=CC(=O)CCC4=C3[C@@H](c3ccc(N(C)C)cc3)C[C@@]21C`: the result_ITMP is -1.9%.
As for `C[C@H]1NCc2cc(-c3ccc4c(=O)c(C(=O)O)cn(C5CC5)c4c3OC(F)F)ccc21`, the figure is -1.28%; as for `CCc1cccc(CC)c1NC(=O)N1Cc2[nH]nc(NC(=O)c3ccc(N4CCN(C)CC4)cc3)c2C1`, 3.48%.
Regarding `CO[C@H]1CC[C@H](N(c2cc(C3=CCCCC3)sc2C(=O)[O-])C(=O)[C@H]2CC[C@H](C)CC2)CC1`, the result_ITMP was -0.87%.
For the compound `COC(=O)N[C@@H](C)CNc1nccc(-c2cn(C(C)C)nc2-c2cc(Cl)cc(NS(C)(=O)=O)c2F)n1`, the result_ITMP stood at 6.64%.
Turning to `CC[C@@H]1C(=O)N(C)c2cnc(Nc3ccc(C(=O)N[C@H]4CC[C@H](N5CCN(CC6CC6)CC5)CC4)cc3OC)nc2N1C(C)C`, the result_ITMP was 81.5%.
On to `COC(=O)C1=CO[C@@H](O)[C@@H]2C(CO)=CC[C@H]12`, for which the result_ITMP was 2.68%.
For `COc1cc2c(NC3CCN(C(C)C)CC3)nc(N3CCC(F)(F)CC3)nc2cc1OCCCN1CCCC1`, the result_ITMP is given as 8.94%.
On to `O=C([O-])P(=O)([O-])[O-]`, for which the result_ITMP is on record as -2.03%.
The same measure for `CC(=O)OCC1=C(C(=O)[O-])N2C(=O)[C@@H](NC(=O)CCCC(N)C(=O)[O-])C2SC1` (stereo partly drawn): 1.34%; for `CC(C)(C)c1ccc(S(=O)(=O)Nc2ccc(Cl)cc2C(=O)c2cc[n+]([O-])cc2)cc1`: -0.49%.
For the compound `CCCCCCNC(=O)n1cc(F)c(=O)[nH]c1=O`, the result_ITMP was found to be 16.1%.
`COc1ccc2cc(-c3[nH]c(-c4ccc(S(C)=O)cc4)nc3-c3ccncc3)ccc2c1` (stereo not drawn): the result_ITMP is recorded as -3.68%.
In the case of `CC(O)c1cc(C(=O)N[C@@H](C)Cn2ccc(-c3ccc(C#N)c(Cl)c3)n2)n[nH]1` (stereo partly drawn), the result_ITMP is -6.56%.
